The list shows a part of the results. These are noisy estimates, calculated here from bound and input reads.
target: T1, Pho4 (S. cerevisiae) (UniProt P07270); assay: relative binding free energy (BET-seq); higher = weaker binding; details: reference: library average
T1 sequence: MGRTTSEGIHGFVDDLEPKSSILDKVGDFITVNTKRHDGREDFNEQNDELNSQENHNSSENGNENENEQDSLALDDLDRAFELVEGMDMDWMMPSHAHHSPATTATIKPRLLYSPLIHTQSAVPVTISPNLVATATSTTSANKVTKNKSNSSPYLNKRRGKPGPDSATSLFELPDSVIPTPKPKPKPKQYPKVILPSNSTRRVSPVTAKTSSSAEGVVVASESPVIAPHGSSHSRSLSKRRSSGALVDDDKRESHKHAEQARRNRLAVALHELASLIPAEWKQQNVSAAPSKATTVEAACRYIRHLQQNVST

Sequence | relative binding free energy [kcal/mol]
TGTCACACGTGGTGCG | -0.07
TCAGTCACGTGCTGTG | 0.04
GATTACACGTGTAGGC | 0.26
CTGGCCACGTGTGGTT | -0.03
GGGGGCACGTGAAAGT | 0.14
TCGGTCACGTGGGGGC | 0.02
ATGGGCACGTGGGGAG | -0.37
GTTGACACGTGGGAAT | 0.01
GTATCCACGTGTGTTG | 0.01
TAAATCACGTGTATTA | 0.06
GTAGTCACGTGCAATG | 0.14
GATTTCACGTGTTTAC | 0.44
TTTCTCACGTGAGATG | 0.35
TATGACACGTGATGGC | 0.02
GGAGACACGTGGTTAG | -0.21
TAAGGCACGTGATTGA | 0.07
GGTTTCACGTGAATAG | 0.3
TGGTCCACGTGGCAGG | -0.15
TGAATCACGTGTAGAT | 0.26
GTTTACACGTGGAAAA | 0.3
TATGTCACGTGCAGGC | 0.11
AGAAGCACGTGATGAG | 0.16
TGGAGCACGTGGCGGA | -0.06

Sequence | relative binding free energy [kcal/mol]
ATATACACGTGTTGTG | 0.01
ATCGGCACGTGGATAG | 0
GATAGCACGTGTGATT | 0.11
GAGAGCACGTGGTAGG | -0.09
TAACGCACGTGTGTTT | -0.07
GGTCACACGTGTGTAT | 0.24
TTGTCCACGTGTTAGC | 0.17
GGGAACACGTGAGGGT | 0.26
CATTTCACGTGTTGGG | 0.14
TGGGGCACGTGCTAGG | -0.2
TGAGACACGTGCGGGT | -0.07
GTTTACACGTGTGTGC | 0.23
ATTCACACGTGGTCTT | 0.08
AGTTTCACGTGACGTG | 0.33
TGAGACACGTGGTTAA | -0.09
TGAGACACGTGGAAGT | 0.22
TGTCTCACGTGGCGGA | 0.06
GAGATCACGTGGTCGG | 0.19
TGGGTCACGTGGCAGT | 0.06
GGGGGCACGTGGAAGA | 0.05
TCAGGCACGTGGGCTT | -0.22
TATTACACGTGTGGAT | 0.1
ATTGTCACGTGATATT | 0.3

Sequence | relative binding free energy [kcal/mol]
TCTATCACGTGTGTGG | 0.14
GTAGACACGTGGGTGT | -0.07
AGAAGCACGTGTGTTA | -0.05
TGCGGCACGTGATTGA | -0.04
TCTTCCACGTGTGTGT | -0.01
ATAAGCACGTGTTGTA | -0.13
TAGAACACGTGGTATG | -0.19
TTGAACACGTGAGCTT | 0.29
CGGATCACGTGGTGTT | 0.13
TGGCTCACGTGTTATG | 0.19
TTAGGCACGTGAAGAT | 0.11
TATTCCACGTGTGGGA | 0.08
GGTTTCACGTGCGGGA | 0.27
TGTGTCACGTGGACTA | 0.06
GGGATCACGTGTTTAT | 0.14
AACTGCACGTGTTTTT | 0.03
GTTCGCACGTGTGTTT | 0.03
TGGCTCACGTGCAGGT | 0.07
AGTATCACGTGGGCAG | 0.01
TATTGCACGTGATGCA | 0.03
TATAGCACGTGGTAAT | -0.13
GGGGGCACGTGGGACT | -0.15
TACTGCACGTGTAATG | 0.03

Sequence | relative binding free energy [kcal/mol]
CTGTTCACGTGTTCGT | 0.23
AGTAGCACGTGGGGAC | -0.09
TAGGGCACGTGAGGTC | 0.09
AAATACACGTGTTTGT | 0.07
GAATTCACGTGGTGTT | 0.27
CGGGCCACGTGCGGTT | -0.09
GGGTTCACGTGATTTG | 0.44
GTGTTCACGTGCAGGT | 0.29
GGAGTCACGTGCGAGG | 0.18
AAAGGCACGTGTTTGT | -0.06
CTTATCACGTGGGTTG | -0.01
TTTTTCACGTGTATAC | 0.19
GTTAGCACGTGGTTCA | 0.05
GTGCACACGTGAGGTG | 0.39
ATGGGCACGTGAGTAA | 0.22
AGTTCCACGTGCGTGG | 0
CTCTACACGTGTGTGT | 0.05
AGAATCACGTGTAATG | 0.2
TTATGCACGTGTAAGT | 0.17
ATATACACGTGGTCGT | -0.16
TCTCTCACGTGTGTGG | 0.17
TTAAACACGTGGTCGG | -0.12
TTTAGCACGTGTTCGC | 0

Sequence | relative binding free energy [kcal/mol]
TGTGTCACGTGGCGAG | 0.01
GTAGGCACGTGACGGA | 0.06
TGTACCACGTGTGGCG | 0
GGTTCCACGTGGGTTA | 0.02
GGTCTCACGTGGCGTG | 0.08
CATTTCACGTGGGGCT | 0.11
GTGCGCACGTGTTGGG | -0.05
TGAGGCACGTGCTGCT | -0.04
TGTTCCACGTGGCTGG | -0.14
TGTAACACGTGAGATT | 0.4
GGGAGCACGTGTTGTC | 0.1
TGAATCACGTGTGTCG | 0.15
ATGTTCACGTGATGCG | 0.27
TGGGTCACGTGGGCTC | 0.03
TTCTGCACGTGGGATG | -0.16
GGTTGCACGTGACGAG | 0.16
GATGGCACGTGTGTTA | 0.08
GTTGGCACGTGTCCTG | -0.14
TGTAGCACGTGTTGGA | -0.09
TTAGTCACGTGATCTT | 0.15
GTGTACACGTGCATGT | -0.14
GTCCTCACGTGGTGTT | 0.15
TATGACACGTGGGCAG | -0.1
